Reference: PMC10726135
Some of the results follow. At the low end of the ranking the order means little. Measured with an extract: partners may take part in the binding.

Each sequence was assayed against T1, HNF4alpha8 (COS-7 nuclear extract) (UniProt P41235-5) (assay: protein-binding microarray). Conditions: COS-7 nuclear extract on double-stranded Agilent 4x180k PBM; binding buffer, salt, pH and temperature not given; high values mean tight binding; double strand, one strand shown; sequences stand for … in …GCCTAGGGAGATTAGAGTATCGGTCGA.
T1 sequence: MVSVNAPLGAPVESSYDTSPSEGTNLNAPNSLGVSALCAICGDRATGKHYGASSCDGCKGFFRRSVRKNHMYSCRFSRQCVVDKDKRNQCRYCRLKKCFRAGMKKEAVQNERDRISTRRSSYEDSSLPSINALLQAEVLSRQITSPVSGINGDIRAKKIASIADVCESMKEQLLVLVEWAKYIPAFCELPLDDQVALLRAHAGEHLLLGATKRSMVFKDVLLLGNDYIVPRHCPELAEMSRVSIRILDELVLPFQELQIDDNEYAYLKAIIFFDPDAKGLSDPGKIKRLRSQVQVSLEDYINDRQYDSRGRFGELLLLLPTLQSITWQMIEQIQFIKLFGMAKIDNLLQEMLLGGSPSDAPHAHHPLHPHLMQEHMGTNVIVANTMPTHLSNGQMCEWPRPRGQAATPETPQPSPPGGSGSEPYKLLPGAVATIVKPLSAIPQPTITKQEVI

Sequence | binding signal (log2 normalized intensity)
TCCCCCAAACCAAAGAGAAATGGTGTGGAC | 2.12
CACATTCCAGGAATATTCAGATATTCCTGG | -1.27
AAAAACCTCTCTCCAGGTACAAGGATAAAT | -0.486
TGCAGGGAGGACAGACTCTGGGAGATAAAG | -1.26
CTTATCAGGCTCATTCTAACCCAAATGCAA | 1.98
ACTTCGCTGGAGGTGTTAAAGTGCCATTGA | 1.75
GAGGAGACAAAGGCCGCGCCCGCCCGCGCC | -1.08
GATTTAATCCTCAAAAATGCTTTACAAGGT | -1.21
TGTTTAGGAGCCAATTATGCTGGCAGTAGG | -0.999
CTGTTACCACACCACAGCGGGGCCTCTGTG | -1.28
CTGCTTATCTCAACTGATTTACCTCTGACC | 3.03
TATGGTCTCTTCCAAAGCTGAAATGCCTCA | -1.34
CTGCCCTTTGCCCTTTGGGAAGGGGCAAAA | 5.21
GTGGAATCCTGCTAGCAGCTCTCTCCCTTA | -1.33
CCCCCAGGAGCGAGTCAAGGGTCAATCCTC | 4.12
CAACCCTGGCATAGCATGCCACGATGATTA | -1
ACTTTCTGTGTCTTGGCAGTGATCAGTGTT | 2.23
CAGTCCACATTTCTGAGCTGTGGAAACTCC | -0.41
AAGGTTGGTGTGAACCAGGGTTAAGGTTTT | 1.54
GGTTAGAGGATGACCTTCCCTGCAGAAAAG | 0.76
AAGCCGTGGTGCTGTCCAAGGTGCTAGCTC | -1.34
AAGTTGTAAAGATACTGCTTTTAAGAAAAA | -1.26
TGCACCCCAGGTACGGAGGACAGCCACCCG | -1.15
ACAGAGCAAGTAGAGCTGCTTACATTTTGC | -1.27
AAACAGATAACTGGGGGCAAAGGTTCACTT | 5.69

Sequence | binding signal (log2 normalized intensity)
CATTGTAGCCTCAAATTCCTGGGCTCAAAC | -1.42
CTTACAGACTCCTGCATATCCTGACTGCTG | -1.34
CACTGCTCTAGGCATTGGAGATATGATAGC | -0.93
GTACCTCCCGAAAGTGACCCTCTGCCCCCT | 6.93
CCAGTTAGACATAGGTTATAAACTTGTTTG | 1.98
TCCAAAGGCCATCTGCTGGAGAATCCTCTC | -1.28
ATGACTACTTTAAAAGAAGATGCCTTTCAA | -1.24
AGGAGATAATGGGTGTAAGATACCTATGCC | -0.143
CACTACAAGCTTTGAAGGCAAGATAAAATA | -1.32
AAGCTTAGGAATTCCAAGAAGGCAGACTCA | -1.26
GAGTTGGGGACAAAGTTCAAGGTCCAGCCT | 6.37
GCAACCCCGTTTACTTTTGTACACACAGCA | -0.416
ACCTTTGGGACATTCCCCAGGCTGCCCTGA | 1.75
CCCAGTACAAAGTTCACTTTCTTGTTTACT | 5.19
TCTGACCCTTGACCAAGCAGCTGTTTGACC | 3.77
GGAGTTAACTAACAAAAGCAGAGGAGTGGC | -1.35
TCCCTGACAGACCCCTCCTACGTACCCTAG | 2.72
TTTAGAGCACAGTAATGTGATTTAATTCTG | -1.21
CTCCAGGACCTTGCCCTTTAGTTATCTCTT | 3.16
GGTTACAGGGTTCAACACGTGGTATTTTTC | 2.31
CATCTCAGCTGTTATCTCTTTTGTGATAGA | 1.18
GGGCGGGGGTGACCAGATTAATTACCCACA | -1.27
GGCTCCGCTGCTGCAGAGCAAAGCTGATAA | -1.31
TCCAGCCTGGGTGACAGAGTGAGACTCTAT | -1.28
TACTGACCTTTCTCCCTTTTCACAGGAGAG | 1.94

Sequence | binding signal (log2 normalized intensity)
GGTAGTCGCCCTCCGTCGTGGCCTGGCGTG | -1.16
CTCATTACTAATCCTCTTCTGTCCTCCTGT | 2.05
AAATTCTGCGGCGGAAGGACACAGATTCAG | -1.41
CCCCTTCCCACCTGCTGTCCAACCTCCTCC | 3.83
ATTCATTCAGCAAATATTGAATGTGTTACA | 1.43
GCCAGACTGGTTTTTCTTGGGTGTATGGGT | 1.98
AGACATTCCAAACATGTTTCGAACGGTTGC | 0.375
TTGCTATGTCCCTGATGACATAATTTACGG | -0.0713
TTCCCGGCAGCCCGCGCGTGGCCCAGCATG | -1.32
CAGATCCCAAAGGCATGAATAGAATGCAAC | -1.24
CCAGATAAGAGCTATCAATGACCCATGTTT | 2.05
AAATACTTGTTATATTGGATAGTGCCTTTT | 1.43
CAGGAGCCCTAGGAATCCTGACCAGGGGCC | -1.36
CAATTTCTTAGTAAACACTGCCACCGTGTG | -1.31
TCTACCATAGACCCTGTTGGTTTCTGGGAT | 0.92
TTTGCAAGGTTTGTTCTTATCATGCTGTCT | 1.68
CACCCTTCCCTGAGTTTCCATTAACTGAAC | 0.972
CTCCGTCGTGGCCTGGCGTGGATTCCGAGC | -1.31
TTTGCCATAGATCCCACCATTCCCAGTTGT | 1.86
CAGAATGACTTTCAGAAAGTCCTTGGAAAC | 0.868
ATGCATTTCCCTAGATCACTGTGTATTTGT | 1.6
CTTTAACAAGGTGTGTTTGAGCAGGGGTGA | 1.4
GCTGTCAACGGAGGTGGGAAAGACTTAGGA | -1.37
TTAGATAACATCTTTTCTCAGTTAACTGGA | 1.28
GAATGCTTTGAGCCAGAATCTGTCAGCTGC | -1.36

Sequence | binding signal (log2 normalized intensity)
GGGGAAAGTGCAAGGGCCCAGAGGAAGGAA | -1.28
GGATATTGGCAACGCCTCAGAAGCAAAGTC | -1.48
TAGTTATTCAGTACAGACTTGTGTAATAAC | 0.939
AGTTGAGAATTCCAGAGATGCCAGGAGAGC | -1.29
AGCCTTACCAGTAGGACCACATTCAATCAT | -1.2
AAAAAGCTATCATTTGTCACTTGGACTATT | 3.62
TTGGTGAGTCTTAGGGAGGGGCCAGGACAA | -1.26
AAAGTGACACATTCCAGGCGAGTTTGGGCT | -1.25
AAATTTCAGATATCTGAATGTACCTTTGAA | 3.09
TGTGCAGACCTTCTCTGGCCCTCACTTACA | -1.23
GTCCTTTCAGGACACCTTCAGGGCTGAGCC | 0.705
ATATCAGTGGCACTCTCTGGGTTAAACGTG | 1.34
CCAGAATCCTAACTGCAAGGAAATCTGGGA | -1.48
GACTTTGGCTTTTCCAAAGGATCCCAGGAA | -1.33
CTGCCTATCTCCTATGAGCCAAACACCATG | -1.29
TCCCCAGACAGCCACTGTTTGACGACTGTC | -1.11
AACGGGTTAGACGCACGGCAGAGCACCTGG | -1.35
CTCTGAATAACTGCTTTGTGGCATCAGGGT | 0.685
CTTTCCTGCAGAGGGACTGACTCCCTTTTC | -0.672
CCGTCAATCTGCAGCCGCCGGAGAATTAAA | -1.24
TGCAGGTGGGAGAGGGGGACTGCAAGTACG | -1.47
TCTGCTACTTAAGATAGAGGCTTTAGCAAT | -1.31
CATATAAGGAACAAAGTCAGGTGCCAAAGG | 1.22
GTCTCTCAGGCACAGCTCGACCTTTGACCT | 10
GATTTGAAGGAGCAGAATAAGGCCCAGTGT | -0.567

Sequence | binding signal (log2 normalized intensity)
TTTGACATCCAAAGTTTCCTCTCCTGCCCT | 2.45
TGACCACTCTGCCAGGTGACCACTCTGTAA | -0.56
AGACAGTGTGGCAGAAAACGCAATTGCCCT | 2.13
GCTTTGCGGAGAGGGTTCTCACTCCTCTAT | -1.29
ATAAGAAACCCAAGATTTGGTGTTACCTTT | 1.46
CTGCCCTTCCACCCACTTTATCTTCTATAG | 1.52
CTTTACCACCCTCACAGCTCAATCCAACAA | -1.29
AGAAGGGGACAAGCACATTAGGAGGAAAAA | -1.3
CAACAACACAGATCATATCATTTATTTGCT | -1.21
CCTCTGTTGCTTCAAAGGGCAAAAGGGCAA | 5.69
ACTTGCGGGCGGGGGGTGGGGTGGAAGCTA | -1.22
CCTCCCCCTGGGGACAGGTGTTAATGTCTA | 2.19
TGTGGTGTTCGCTAAGATGTAGCAAGAATG | 0.683
ACGTTCACGTCTCAAGCTTCAGGAGTCCAC | 2.71
CCTGCAACAGCCCCATGAGATAGGTACTAT | 0.633
CCAATGTGGAGCTGCTGAACTATTGAACCA | 3.36
AAACGGATGCAAAGGCTGAGCCCTTATCTT | -1.35
AGTTGTTCAAAGTCCATGTGTTAAATAATA | 4.23
TAGAATGGAACTGAAGGCAGGAAAGGGCCT | -1.31
CCTGTGTGCATGGAGTGCACTGTGATCTTT | 3.87
ACAGGTTGGAGACGCAGAGAAGCACTGCAG | -1.29
TGAAGACACTGAGGAAAAGCTGTCTACAAA | -1.26
GGAATTCTCTTCCCAACAGGAGATTACTTC | -0.194
CTGGTGGACTTTGCTCTGCTCATTTTTCCC | 5.77
TGGTAAGCAGACCCCTACTGGGGATGGACT | 2.46

Sequence | binding signal (log2 normalized intensity)
TCTTGGGTCAAAGTCTCTGGTACAAAATTA | 2.89
AGGTCGCAAGCACTGGCTCTGGGGTCAAAG | 4.08
AGTCCAGAACCTGGAACCTAGAGGCCTTTC | -1.26
TGCAATTCTCTTTGCCAAAGCATAGCAAGA | -1.48
TTCTAAAGAACATTCCAGCTTTGAAGTGCT | -1.27
TCTGCAGCAGATGGCCAGCCTTTGGACTTT | 8.08
AGTAGCTCACAAATACTCACCCTTGGATTA | 0.978
CTGATCAAAGGTCATTGGTATTGATAGCGC | 5.24
CCAAGGCTGAAGGTCTCGAGGCCTCTTTAT | -0.0513
TACTTGAACCCTACTCATAATTGCTATGTC | 1.15
AAAAACAACTAAAGGAATGCGCCTGAACTG | -1.32
CATTCCACAGCAGAGGAGCCCTGGGCTCAG | -1.22
ATCGCCTAGTACTCCTGCCCCTGTGCAATA | 3.01
CAGGTGTAACAGTTGCAGCTTCAGGAGCTG | -1.3
TGTATACTTATGTAGAAAGATATCTCTGTG | 1.3
AGGGAGACAAAGTGTCACAAACTATCAGTG | -1.35
GGCAATTGATAATGATGTTTACATTCCAGA | 1.15
GAGGTACCTAGGGGACATTCTTTAGAGGCT | -1.3
ATTACATCCAGAGTGGGACAAAGTTCCCCG | 1.91
TTGGTTTCCTACGGCTGCTGTAACAAGTGG | 0.83
